From PubChem BioAssay AID1240 (Sanford-Burnham Center for Chemical Genomics, 2008) come the findings set out here.

Among all 50,000 compounds or so, about 800 (1.6%) showed an effect of 50% or more. The list shows a part of the results.

The target in the experiment is Bcl-2-like protein 10 (Homo sapiens) (UniProt Q9HD36). The experiment is described as follows: Phenotype converters, Bcl-B/TR3 peptide binding displacement, primary biochemical FP (AID 1240).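 Also: 0% = Bcl-B with tracer peptide and DMSO and 100% = tracer peptide lacking Bcl-B.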 The note with it: GST-Bcl-B / FITC-TR3 peptide fluorescence polarization; stronger effect = higher value; compound at 3.75 mg/L.
Sequence of UniProt Q9HD36 (Q9HD36 whole entry, looked up): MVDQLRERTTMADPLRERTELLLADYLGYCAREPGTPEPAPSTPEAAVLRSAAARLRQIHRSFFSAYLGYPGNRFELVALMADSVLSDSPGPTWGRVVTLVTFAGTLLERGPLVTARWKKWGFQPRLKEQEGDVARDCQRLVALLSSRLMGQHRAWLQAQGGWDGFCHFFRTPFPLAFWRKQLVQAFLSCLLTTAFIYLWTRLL
With `COc1ccc(CC(=O)Nc2ccccc2NC(C)=O)cc1OC`, the displacement was -1.2%. For `CCOC(=O)c1ccc(N2NC(=O)/C(=C/c3cccc(OC)c3O)C2=O)cc1`, the displacement was found to be 12.4%.

`O=C(CCCOc1ccccc1)Nc1cccc([N+](=O)[O-])c1`: the displacement came to 3.1%. Consider `CC1=NN(c2ccc(S(N)(=O)=O)cc2)C(=O)/C1=C\c1ccc(-c2ccc(S(N)(=O)=O)cc2)o1`, for which the displacement was found to be 0.5%.

With `O=C(NC1CCS(=O)(=O)C1)c1ccc(Br)cc1` (stereo not drawn), the displacement came to 6.8%. Under `COc1ccc(CCC(=O)NCc2ccc(Cl)c(Cl)c2)cc1` stands 1.2%; under `O=C(COc1ccc(Cl)cc1Cl)Nc1ccc(S(=O)(=O)N2CCc3ccccc32)cc1`, 12.5%; under `CCCOc1ccc(C(=O)Nc2ccc(O)c(-c3nc4ccccc4s3)c2)cc1`, 16.5%.

For `Cc1c(Cl)cccc1NC(=O)C(=O)NCc1ccco1`, the displacement was determined as 3.2%.

`Cc1ccc(N2C(=O)/C(=C/c3ccc(Oc4ccc([N+](=O)[O-])cn4)cc3)C(=O)NC2=S)c(C)c1`: the displacement was determined as 7.3%. Under `CCOC(=O)C(C(=O)OCC)=C(CCN1C(=O)c2ccccc2C1=O)OC(=O)CCN1C(=O)c2ccccc2C1=O` stands -4%. In the case of `COc1ccccc1N1CCN(/N=C\c2c(O)ccc3ccccc23)CC1` it was 46.6%. Under `O=c1c(C=NC2CC2)c(-c2ccccc2)[nH]n1-c1ccc([N+](=O)[O-])cc1` stands 5.9%; under `Cc1nn(CC(=O)Nc2c(Cl)cccc2Cl)c(=O)c2ccccc12`, -15.9%; under `O=C(COc1ccc(Cl)cc1)Nc1nc(-c2ccc(S(=O)(=O)N3CCOCC3)cc2)cs1`, 9.4%. For `O=C(Nc1ccc2c(c1)C(=O)N(c1ccccc1)C2=O)c1ccccc1Cl`, the displacement came to 0.1%. Under `COc1ccc(/C=C(\NC(=O)c2ccccc2)C(=O)NCc2ccncc2)cc1` stands 12.6%; under `CCCNc1nc(OCC(F)(F)F)nc(OCC(F)(F)F)n1`, 12.4%. Turning to `COc1ccccc1/C=C1\SC(=S)N(CCC(=O)NNC(=O)c2ccccc2O)C1=O`, the displacement worked out at 14.7%.

Consider `Cc1ccc(C(=O)Oc2ccc3c(C)cc(=O)oc3c2)cc1`, for which the displacement turned out to be 3.9%. In the case of `O=C(CCC1CCCCC1)NCC1CCCO1` (stereo not drawn) it was -7.2%; in that of `COc1cc(OC)cc(C(=O)Nc2ccc(C(N)=O)cc2)c1`, 9.6%. Under `Cc1c(Cl)cccc1N=Cc1c[nH]c2ccccc12` stands 10.3%; under `S=c1[nH]nc2c3c4c(sc3n3c(=S)[nH]nc3n12)CCC4`, -1.2%. Under `COc1cccc(/C=C2\C(=O)NC(=O)N(c3ccccc3)C2=O)c1OC` stands -8.7%; under `Cc1ccc(/C(O)=C2\C(=O)C(=O)N(c3nncs3)C2c2cccc(Br)c2)cc1` (stereo not drawn), 18.7%; under `CCOC(=O)c1c(NC(=O)C2CC2)sc(C(=O)Nc2cccc(OC)c2)c1C`, -5.8%. For the compound `O=C(NC(=S)Nc1ccc(Cl)c(-c2nc3ccccc3s2)c1)c1ccco1`, the displacement worked out at 5.8%.
